# Results as given in PubChem BioAssay AID1347165 (National Center for Advancing Translational Sciences (NCATS), 2019).
# About 5,700 (2.6%) of roughly 220,000 compounds were called active. The shares of active, inactive and inconclusive entries below differ from those in the screen. The call rests on the fitted dose curve; in most records, active means well fitted inhibition curve with a large enough effect; inconclusive means small, poorly fitted or top-dose-only effect; inactive means no such curve, though single readings can be large or run the other way. Potencies beside an inconclusive call are fits to weak or partial responses and may not hold up.
# Target: Lysine-specific demethylase 5B (Homo sapiens) (UniProt Q9UGL1)
# Assay: Primary screen for KDM5B Histone Demethylases FDH-coupled qHTS; further: nearly all actives have a fitted effect of over 70% in size; on activity change, negative = inhibition: 0% is about no effect
# Conditions: FDH-coupled NADH fluorescence (FDH is formaldehyde dehydrogenase); activity change, negative = inhibition: at 57.7 µM (top of the series) unless noted
# How it was run: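 Here, H3K4me3 peptide (12.5 µM in substrate mix) is demethylated by KDM5BΔAP, 200 nM final, after 10 min compound exposure. Formaldehyde product is coupled through FDH (0.25 U/mL in mix) to NADH fluorescence; 30-min ΔRFU feeds dose-response curves.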
# Potency means the concentration at half of the fitted maximal effect; tags describe the fitted curve by direction and shape.
# UniProt Q9UGL1, sequence (Q9UGL1 whole entry, looked up): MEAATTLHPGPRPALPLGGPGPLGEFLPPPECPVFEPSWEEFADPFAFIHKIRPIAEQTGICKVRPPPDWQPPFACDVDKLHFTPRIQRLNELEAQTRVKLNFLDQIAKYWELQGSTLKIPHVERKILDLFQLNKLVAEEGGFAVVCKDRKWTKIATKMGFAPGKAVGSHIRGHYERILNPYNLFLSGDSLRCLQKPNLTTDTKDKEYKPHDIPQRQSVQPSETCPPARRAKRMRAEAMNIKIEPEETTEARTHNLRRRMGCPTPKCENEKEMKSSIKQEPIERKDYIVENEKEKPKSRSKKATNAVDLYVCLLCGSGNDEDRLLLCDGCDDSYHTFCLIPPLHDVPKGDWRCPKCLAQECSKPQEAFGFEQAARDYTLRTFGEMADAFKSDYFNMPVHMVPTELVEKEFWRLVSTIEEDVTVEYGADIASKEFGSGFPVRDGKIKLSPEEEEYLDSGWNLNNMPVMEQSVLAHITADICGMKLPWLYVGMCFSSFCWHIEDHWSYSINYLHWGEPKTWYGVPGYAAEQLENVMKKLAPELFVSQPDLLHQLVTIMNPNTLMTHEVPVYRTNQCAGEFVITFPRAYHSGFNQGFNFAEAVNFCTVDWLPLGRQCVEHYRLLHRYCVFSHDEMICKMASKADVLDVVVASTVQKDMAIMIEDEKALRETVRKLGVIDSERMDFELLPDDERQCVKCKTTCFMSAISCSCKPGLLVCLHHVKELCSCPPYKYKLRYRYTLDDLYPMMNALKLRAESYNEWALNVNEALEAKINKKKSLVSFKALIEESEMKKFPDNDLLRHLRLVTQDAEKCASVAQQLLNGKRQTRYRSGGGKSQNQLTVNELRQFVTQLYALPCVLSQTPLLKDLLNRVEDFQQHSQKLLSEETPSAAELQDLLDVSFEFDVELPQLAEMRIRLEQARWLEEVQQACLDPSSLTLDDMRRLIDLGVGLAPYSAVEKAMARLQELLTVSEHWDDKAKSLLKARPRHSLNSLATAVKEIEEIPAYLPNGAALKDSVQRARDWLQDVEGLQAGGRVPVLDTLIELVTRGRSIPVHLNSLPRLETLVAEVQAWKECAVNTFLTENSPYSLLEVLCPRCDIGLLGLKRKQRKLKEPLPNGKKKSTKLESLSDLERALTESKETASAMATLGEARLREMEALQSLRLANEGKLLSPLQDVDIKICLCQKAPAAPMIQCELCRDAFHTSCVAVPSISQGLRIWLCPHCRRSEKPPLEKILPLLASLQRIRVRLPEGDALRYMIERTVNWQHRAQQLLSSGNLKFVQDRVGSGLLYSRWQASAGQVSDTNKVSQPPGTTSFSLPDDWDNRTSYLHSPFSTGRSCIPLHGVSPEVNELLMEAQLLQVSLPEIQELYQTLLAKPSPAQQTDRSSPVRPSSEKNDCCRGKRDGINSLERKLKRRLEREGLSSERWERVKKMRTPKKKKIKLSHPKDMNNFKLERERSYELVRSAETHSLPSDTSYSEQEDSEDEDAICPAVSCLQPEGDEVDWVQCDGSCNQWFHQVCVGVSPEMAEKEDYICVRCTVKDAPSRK
SMILES,"activity change, negative = inhibition",Potency
O=C(O)C(c1c[nH]c2ccccc12)N1CCN(Cc2ccccn2)CC1 (centres undefined),inactive: -8.96%,–
COCCCNC(=O)c1ccc(Cn2c(=O)c3ccccc3n(Cc3c(C)cc(C)cc3C)c2=O)cc1,inconclusive: -31.8% [inhibitor],–
CC(NC(=O)c1cc2cc(F)ccc2[nH]1)c1ccccc1 (centres undefined),–,"inconclusive: 20 µM [inhibitor, partial curve, poor fit]"
O=C1NCc2ccccc2CC12CCCN2Cc1ccc(Cl)s1 (centres undefined),inactive: 9.21% [at 149 µM],–
Nc1c(C(=O)Nc2ccccc2F)sc2nc(-c3cccnc3)ccc12,–,"inconclusive: 12.6 µM [inhibitor, partial curve, poor fit]"
CCN1CCN(C(c2ccc(SC)cc2)c2c(O)cc(C)n(CCOC)c2=O)CC1 (centres undefined),–,"inconclusive: 44.7 µM [inhibitor, single point]"
COc1ccc(CNC(=O)Cc2c(C)c3c(OC(C)=O)cc(OC(C)=O)cc3oc2=O)cc1,inactive: 543%,–
O=C(c1ccc(F)c(F)c1)N1CCC(n2cc(-c3nc(C4CC4)no3)nn2)C1 (centres undefined),inactive: -1.61%,–
COc1ccc(Cl)cc1NC(=O)c1c(NCc2cccnc2)sc2c1CCC(C)C2 (centres undefined),–,"inconclusive: 11.2 µM [inhibitor, partial curve, poor fit]"
CCO[C@H]1CN(C(=O)c2cnn(Cc3ccccc3)c2)C[C@@H]1O,inactive: 2.19%,–
COc1ccccc1NC(=O)C1=C(C)Nc2c(C(=O)Nc3cccc(C)c3)cnn2C1c1ccccc1Cl (centres undefined),inconclusive: -105% [inhibitor],–
Cc1ccc(Cl)cc1NC(=O)CCCn1c(=O)c2cccn2c2cccnc21,inactive: -8.4%,–
CCCCCCN(CCC(=O)NCCc1ccccc1)C(=O)c1cc(C)oc1C,–,"inconclusive: 31.6 µM [inhibitor, single point]"
COc1ccc(OC)c(CNC(=O)c2ncoc2-c2cccs2)c1,–,"inconclusive: 22.4 µM [inhibitor, partial curve, poor fit]"
COCC(=O)N[C@H]1C[C@H]2C(=O)Nc3ccc(/C=C/c4ccc(OC)cc4)cc3C(=O)N2C1,–,active: 28.2 µM
COc1ccc(CCNC(=O)c2ccc(Cn3c(=O)c4ccccc4n(CC(=O)C(C)(C)C)c3=O)cc2)cc1OC,–,"inconclusive: 20 µM [inhibitor, partial curve, poor fit]"
COc1cc(NC(=O)CCn2nc(C)c(S(=O)(=O)N3CCCCC3)c2C)cc(OC)c1OC,–,"inconclusive: 28.2 µM [inhibitor, single point]"
COc1ccc(C2CC(=O)Nc3nc(C)[nH]c(=O)c32)cc1OC (centres undefined),inactive: 17.2%,–
Cc1ccc(N/N=C/C=C/c2ccco2)cc1,–,"inconclusive: 28.2 µM [inhibitor, partial curve, poor fit]"
